Experimental data as given in PubChem BioAssay AID602310 (National Center for Advancing Translational Sciences (NCATS), 2012).
Among all 410,000 compounds or so, about 310 (0.076%) were called active. This list was built around the results that the source calls inconclusive (neither active nor inactive); the mix of calls is not that of the screen. The call rests on the fitted dose curve; in most records, active means well fitted curve in the direction sought with a large enough effect; inconclusive means small, poorly fitted or top-dose-only effect; inactive means flat fitted curve, though single readings scatter. A potency beside an inconclusive call is a rough fit, not a confirmed value.

These compounds were tested against DNA dC->dU-editing enzyme APOBEC-3G (Homo sapiens) (UniProt Q9HC16) (assay: qHTS for Inhibitors of Vif-A3G Interactions: qHTS). Conditions: HeLa A3G-eYFP + Vif (tagged APOBEC3G with the HIV-1 protein that degrades it), YFP fluorescence, overnight; series mostly up to 46.1 µM; activity, negative = active: at the top concentration.
Sequence of UniProt Q9HC16 (Q9HC16 whole entry, looked up): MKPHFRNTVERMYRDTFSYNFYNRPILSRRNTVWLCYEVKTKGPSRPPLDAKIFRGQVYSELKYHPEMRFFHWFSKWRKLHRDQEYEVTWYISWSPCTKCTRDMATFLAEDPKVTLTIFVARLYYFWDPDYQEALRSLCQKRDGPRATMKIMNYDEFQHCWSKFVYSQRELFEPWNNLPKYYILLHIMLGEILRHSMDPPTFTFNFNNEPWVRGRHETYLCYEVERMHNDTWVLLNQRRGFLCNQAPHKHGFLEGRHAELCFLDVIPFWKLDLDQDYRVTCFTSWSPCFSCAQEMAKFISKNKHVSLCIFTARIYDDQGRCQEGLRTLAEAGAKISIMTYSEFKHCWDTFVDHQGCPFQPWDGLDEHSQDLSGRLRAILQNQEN
How it was run: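 HeLa cells stably expressing Vif and C-terminally eYFP-tagged A3G, seeded overnight at 37 deg C, then exposed to compound by pintool overnight at 37 deg C. Rise in yellow fluorescence (Ex 488/Em 500-530, Acumen) marks blocked Vif-driven A3G degradation.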
Further: nearly all actives have a fitted effect of over 60% in size.
On the % scale 0 is the no-effect control and ±100 the full control effect; potency means the concentration at half of the fitted maximal effect; tags describe the fitted curve by direction and shape.
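Wherever activity, negative = active is given: hits raise eYFP signal because A3G escapes Vif-driven loss.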

Row | Compound | activity, negative = active | Potency
1 | CC(C)(C)n1ncc2c(=O)n(Cc3c(Cl)ccc(Cl)c3Cl)cnc21 | inactive: 1.5% | 
2 | CC(=O)c1cn(CC(=O)Nc2ccccc2C)c2ccccc12 | inactive: 0.555% | 
3 | CN(C)CCNC(=O)C(=O)Nc1ccc2c(c1)N(S(=O)(=O)c1cccs1)CCC2 |  | inconclusive: 11.2 µM [inhibitor, partial curve, poor fit]
4 | Cc1ccc(C2C(C#N)=C(N)SC(N)=C2C#N)c(C)c1 |  | inconclusive: 17.8 µM [inhibitor, partial curve, poor fit]
5 | CC(=O)OCC(=O)C1(O)CCC2C3CC(C)C4=CC(=O)C=CC4(C)C3(F)C(O)CC21C (centres undefined) | inactive: -1.06% | 
6 | CC(=O)Nc1ccc(-c2ccnc3c2CC(C(=O)NCc2cccc(Cl)c2)O3)cc1 (centres undefined) |  | inconclusive: 1.58 µM [inhibitor, full curve]
7 | COCc1cc(C)nc(OCC(=O)N/N=C/c2ccc(C)cc2)c1C#N |  | inconclusive: 6.31 µM [inhibitor, full curve]
8 | COC(=O)Nc1ccc(S(=O)(=O)N2c3ccccc3CCC2C)cc1 (centres undefined) |  | inconclusive: 1.26 µM [inhibitor, full curve, poor fit]
9 | N#Cc1cccn1-c1nccc(-c2cccs2)n1 |  | inconclusive: 12.6 µM [inhibitor, partial curve, poor fit]
10 | CC1(OC(=O)C2CCCC2)C(=O)C=C2C=C(c3ccsc3)N(CCc3c[nH]c4ccccc34)C=C2C1=O (centres undefined) | inactive: 1.37% | 
11 | COc1ccc(N2CCN(C(=O)c3[nH]c4ccc(OC)cc4c3C)CC2)cc1 | inactive: -1.06% | 
12 | O=C1/C(=C\c2ccc(O)c(O)c2)SC(=S)N1Cc1ccccc1 |  | active: 22.4 µM
13 | Cc1nnc(NC(=O)c2sc3nc(-c4cccs4)cc(C(F)(F)F)c3c2N)s1 |  | inconclusive: 2.24 µM [inhibitor, full curve, poor fit]
14 | COc1cccc(C2CC(c3ccccc3Cl)n3nnnc3N2)c1 (centres undefined) |  | inconclusive: 35.5 µM [inhibitor, partial curve, poor fit]
15 | O=C(N/N=C/c1ccc(N2CCCCC2)o1)c1ccccc1[N+](=O)[O-] |  | inconclusive: 35.5 µM [inhibitor, single point]
16 | FC(F)(F)Oc1ccc(NC(=S)Nc2ccc(OC(F)(F)F)cc2)cc1 | inactive: 3.91% | 
17 | OCC1OC(n2cnc3c(NCc4ccccc4O)ncnc32)C(O)C1O (centres undefined) |  | inconclusive: 31.6 µM [inhibitor, single point]
18 | CC(C)NC(=O)C1Cc2c(-c3ccccc3Oc3ccccc3)ccnc2O1 (centres undefined) |  | inconclusive: 22.4 µM [inhibitor, partial curve, poor fit]
19 | CC(=O)Oc1ccc(C#C/C=C2\c3ccccc3C(=O)N2c2ccccc2)cc1 |  | inconclusive: 35.5 µM [inhibitor, single point]
20 | O=C1[C@H](Cc2ccccc2)NC/C=C\C[C@H](c2ccc(Cl)cc2)N1Cc1ccc(Cl)cc1 | inactive: -12.8% | 
21 | Cc1ccc(CNC(=O)CSc2c(C(C)C)cnc3c2c(=O)n(C)c(=O)n3C)cc1 | inactive: 0.222% | 
22 | COc1ccc2nc(NC(=O)c3ccc([N+](=O)[O-])o3)sc2c1 |  | inconclusive: 2.82 µM [inhibitor, full curve, poor fit]
23 | Cc1ccc(C)c(Cn2c(=O)n(Cc3ccccc3)c(=O)c3sc4ccccc4c32)c1 | inactive: 4.79% | 

Row | Compound | activity, negative = active | Potency
24 | Cc1ccccc1/C=C\c1nc2ccccc2c(=O)[nH]1 |  | inconclusive: 6.31 µM [inhibitor, partial curve]
25 | CCOC(=O)CSc1cccc2cccnc12 |  | inconclusive: 20 µM [inhibitor, single point]
26 | Cc1cc(NC(=O)/C(C#N)=C/c2ccc(-c3ccc(SC(F)F)cc3)o2)n(-c2ccccc2)n1 |  | inconclusive: 8.91 µM [inhibitor, partial curve]
27 | CC(OC(=O)/C=C/c1ccco1)C(=O)Nc1cccc([N+](=O)[O-])c1 (centres undefined) |  | inconclusive: 35.5 µM [inhibitor, single point]
28 | Clc1ccc(C2=Nn3c(nnc3-c3n[nH]c4c3CCC4)SC2)cc1 |  | inconclusive: 1 µM [inhibitor, full curve, poor fit]
29 | Cc1nn(C)c(C)c1NS(=O)(=O)c1ccc(N2CCCC2=O)cc1 |  | inconclusive: 35.5 µM [inhibitor, single point]
30 | CCOCCCn1c(=NC(=O)c2ccco2)c(C(=O)OCC)cc2c(=O)n3cccc(C)c3nc21 | inactive: 1.44% | 
31 | CCn1c(CNc2nc(-c3ccccc3)cs2)nnc1SCC(=O)NCc1ccco1 |  | inconclusive: 5.62 µM [inhibitor, single point]
32 | CCN1CCN(Cc2ccc(NC(=O)c3cc(NC(=O)c4cncc(-c5cccs5)c4)cc(OC)c3)cc2C(F)(F)F)CC1 |  | inactive
33 | N#Cc1c(SCC(=O)Nc2nc3ccccc3s2)sc2c(O)cc(=O)[nH]c12 | inactive: -1.07% | 
34 | Cc1ccc2cccc(NC(=O)c3ccc(-c4ccc(Cl)cc4Cl)o3)c2n1 | inactive: -1.14% | 
35 | COc1ccc(OC)c(CNC(=O)c2cc(=O)[nH]c3ccc(S(=O)(=O)N4CCCCC4C)cc23)c1 (centres undefined) | inactive: 4.5% | 
36 | CC(/C=N/NC(=O)c1ccccc1F)=C\c1ccccc1 |  | inconclusive: 35.5 µM [inhibitor, single point]
37 | Cc1cc(Nc2ccc(C)c(Cl)c2)n2nc(-c3ccccc3)nc2n1 |  | inconclusive: 3.55 µM [inhibitor, single point]
38 | CCCCSc1nnc(-c2cc3c(C(F)(F)F)nn(C)c3s2)n1C | inactive: 0.252% | 
39 | Cc1ccc(C(=O)NCCn2c(N)c(C#N)c3nc4ccccc4nc32)cc1 |  | inconclusive: 15.8 µM [inhibitor, single point]
40 | CC(/C=N/NC(=O)CSc1nc2ccccc2n1C)=C\c1ccco1 |  | inconclusive: 15.8 µM [inhibitor, single point]
41 | CCN1C(=O)[C@@H]2[C@@H](c3ccc(SC4CCCCC4)cc3)N3CCCC[C@@]3(C(=O)OC)[C@@H]2C1=O |  | inconclusive: 12.6 µM [inhibitor, single point]
42 | COc1ccc(-c2ccc(OC)c(C3C4C=CCC(C)C4C(=O)N3Cc3ccccc3)c2)cc1 (centres undefined) | inactive: -4.23% | 
43 | O=c1oc(-c2ccccc2)cc(Cl)c1Cl | inactive: -25.6% | 
44 | C=C1C(=O)[C@@]23[C@H](O)C[C@@H]4C(C)(C)CC[C@H](O)[C@]4(C)[C@@H]2C[C@H](O)[C@@H]1[C@H]3O |  | inconclusive: 3.55 µM [inhibitor, full curve, poor fit]
45 | O=[N+]([O-])c1ccc(N/N=C/c2cccc(O)c2O)c(S(=O)(=O)N2CCOCC2)c1 |  | inconclusive: 35.5 µM [inhibitor, single point]
46 | COc1ccc(-c2cc(=O)oc3c(O)c(O)ccc23)cc1 | inactive: 2.16% | 

Row | Compound | activity, negative = active | Potency
47 | O=C(Cc1ccccc1)NCc1ccc(-n2cccc2)cc1 |  | inconclusive: 2 µM [inhibitor, full curve]
48 | CC(OC(=O)c1cc2sccc2n1C)C(=O)NCCc1ccccc1 (centres undefined) |  | inconclusive: 12.6 µM [inhibitor, partial curve, poor fit]
49 | CCC(CC)Nc1ccc(C(CC(N)=O)NC(=O)Cc2cccc3ccccc23)cc1[N+](=O)[O-] (centres undefined) |  | inconclusive: 28.2 µM [inhibitor, single point]
50 | Fc1cccc(NC(=S)NNc2ccccc2)c1 | inactive: 0.594% | 
51 | CCCCNc1ncnc2c1cnn2-c1ccc(Cl)cc1 |  | inconclusive: 3.98 µM [inhibitor, full curve]
52 | CCOC(=O)c1cc2c(=O)n3ccccc3nc2n(Cc2ccco2)c1=NC(=O)c1ccc(OC)cc1 |  | inactive
53 | Clc1cccc[n+]1CCc1ccccc1 | inactive: 1.08% | 
54 | O=C1Nc2ccc(Br)cc2/C1=C/C(=O)c1ccccc1 |  | inconclusive: 25.1 µM [inhibitor, single point]
55 | CCCSc1ncc(Cl)c(C(=O)Nc2sc3c(c2C(N)=O)CCCC3)n1 |  | active: 7.08 µM
56 | CCCCNC(=O)C1(C)CCCCN1C(=O)c1cccs1 (centres undefined) | inactive: 0.752% | 
57 | C=CCOc1cccc(C2C(C(=O)c3ccco3)=C(O)C(=O)N2Cc2ccco2)c1 (centres undefined) | inactive: 0.167% | 
58 | Cc1cc(-c2n[nH]c(=S)n2/N=C/C(Cl)=C/c2ccccc2)n[nH]1 |  | inconclusive: 17.8 µM [inhibitor, single point]
59 | O=c1oc2ccccc2c(Nc2cc3ccccc3cc2O)c1[N+](=O)[O-] |  | inconclusive: 2.82 µM [inhibitor, partial curve, poor fit]
60 | N#CC1(C#N)CC(C=O)=C(N)C1(C#N)CC(=O)c1ccc(F)cc1 (centres undefined) |  | inconclusive: 22.4 µM [inhibitor, single point]
61 | Cc1ccccc1Nc1c(-c2ccc(O)cc2)nc2c(C)cccn12 |  | inconclusive: 15.8 µM [inhibitor, single point]
62 | Cc1ccnc2c(N)cccc12 | inactive: -0.741% | 
63 | c1ccc2c(c1)oc1c(-c3ccc4nccn4c3)cccc12 |  | inconclusive: 3.98 µM [inhibitor, full curve, poor fit]
64 | Cc1ccc(Cn2ccsc2=NC(=O)CCl)cc1 |  | inconclusive: 25.1 µM [inhibitor, single point]
65 | CCOC(=O)COc1cccc2c(=O)n(CC(=O)NCc3ccc4c(c3)OCO4)ccc12 |  | inconclusive: 1.26 µM [inhibitor, full curve]
66 | COc1ccc(Nc2nc(-c3ccc(C)cc3)nc3ccccc23)c(OC)c1 | inactive: 3.24% | 
67 | Cc1ccc(S(=O)(=O)Nc2ccc3c(c2)C(=O)c2ccccc2-3)cc1 |  | inconclusive: 22.4 µM [inhibitor, partial curve, poor fit]
68 | O=c1c2cc3ccccc3n2cnn1Cc1ccccc1F |  | inconclusive: 10 µM [inhibitor, partial curve, poor fit]
69 | CCOc1cc(C(=O)Nc2ccc(N3CCOCC3)cc2)cc(Br)c1OC |  | inconclusive: 8.91 µM [inhibitor, partial curve]
